Some of the results follow.
These sequences were tested on PfHDP1 homeodomain (GST-tagged) (assay: gcPBM binding intensity (ln(normalized median fluorescence intensity)); higher = stronger DNA binding).
Method in brief: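 The binding buffer was 1× PBS containing 1% milk, 0.2 mg/ml BSA, 0.5% salmon testes DNA and 0.03% Triton X-100. In it, GST-tagged P. falciparum DNA-binding domains expressed in E. coli were applied for 1 h to an Agilent 4 × 180k array of primer-extended double-stranded 36-bp intergenic genomic probes plus negative controls. Binding intensity, read with Alexa488 anti-GST antibody and a 488 nm scan, is the highest Masliner-normalised natural-log median intensity across replicate spots of either probe orientation.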
For “ACAATCCACAGGGGCGCACACATATAAGCAGTATAT [CACACA_site3817]”, the “gcPBM binding intensity (ln)” value was 6.86.
In the case of “CACCATGATACATACACACAGACATATACGCATTCA [CACACA_site1008]”, the “gcPBM binding intensity (ln)” value is reported as 6.87.
“GTTTTGGCTAACTATTCACACATTAAAATATTACCA [CACACA_site5016]” was tested, and the “gcPBM binding intensity (ln)” value was 6.73.
For “TATGCTACAAGGAGAACACACAATTGCCACTTTTGG [CACACA_site2166]”, the “gcPBM binding intensity (ln)” value was 6.44.
With “AACCATTATTTCTCTACACACATTTATGTCATTTAC [CACACA_site1499]” the “gcPBM binding intensity (ln)” value was 7.04.
“AAAATTAGGTATATATGTACATATATAAATATATAT [XGTACX_site3555]” was tested, and the “gcPBM binding intensity (ln)” value was 6.8.
“TCCTTATATGGGCACACACACACAATAAAATGAAAA [CACACA_site1030]” was tested, and the “gcPBM binding intensity (ln)” value was 7.06.
With “GTTTATATTAAACAAACACACACATATATATATATA [CACACA_site8749]” the “gcPBM binding intensity (ln)” value was 9.16.
With “TAAATATGCTCACAGATGCACTAACACATTTTTATA [GTGCAC_site9997]” the “gcPBM binding intensity (ln)” value was 10.4.
“TTTTATACATAAATGTGTACGTATATATAATGAATT [XGTACX_site2762]” was tested, and the “gcPBM binding intensity (ln)” value was 6.62.
For “TATTGTAGAGGCAAAAGTACACATTTAATAATTTCC [XGTACX_site1151]”, the “gcPBM binding intensity (ln)” value was 6.26.
In the case of “TACATGCATTTCTCATGTACATAATTTTCCCATATT [XGTACX_site5158]”, the “gcPBM binding intensity (ln)” value is reported as 6.61.
For “ATAAATTAAAGACACACACACATCTGGATACCCCTA [CACACA_site7546]”, the “gcPBM binding intensity (ln)” value was 6.9.
With “TTATATTATATATATAGTACACATGTAATATTTCAA [XGTACX_site1791]” the “gcPBM binding intensity (ln)” value was 6.65.
For “ATCTATATAATATATACACACAAATATACAAAAAAA [CACACA_site1013]”, the “gcPBM binding intensity (ln)” value was 7.13.
“TTATTAATATATAAATGTACATATACAATACATAAA [XGTACX_site5571]” was tested, and the “gcPBM binding intensity (ln)” value was 6.41.
In the case of “TATTTAAGAGTATGAACACACATCATACACATATAA [CACACA_site3617]”, the “gcPBM binding intensity (ln)” value is reported as 6.43.
In the case of “TATGTTTGTGTATATATTTATTTTTATGTAATTATA [GTGCAC_negctrl_site219]”, the “gcPBM binding intensity (ln)” value is reported as 6.92.
With “ATTTAAAAATAAAGAACACACATATGTAAAATATAT [CACACA_site3754]” the “gcPBM binding intensity (ln)” value was 6.73.
With “CAAAATATAACATCATCACACACATATACTTTATAT [CACACA_site8292]” the “gcPBM binding intensity (ln)” value was 6.62.
For “AAAAAAATTAGACACACACACACATATAAATATGTA [CACACA_site6618]”, the “gcPBM binding intensity (ln)” value was 6.64.
With “ATTTAGAATGCGTATACACACATATATAGATTTGCT [CACACA_site626]” the “gcPBM binding intensity (ln)” value was 6.54.
“AATAGAACTATTACACGTACAGAACATGAATTAGTT [XGTACX_site7518]” was tested, and the “gcPBM binding intensity (ln)” value was 6.1.
For “TGTTATATATGTAATTGTACACTTATACAAAATTAT [XGTACX_site6350]”, the “gcPBM binding intensity (ln)” value was 7.03.
With “TTTTTTAATTAGTACAAACACACATATACAGACAAA [CACACA_site2564]” the “gcPBM binding intensity (ln)” value was 7.23.
With “TCTTTTACAAAAGCTATAACATTCACCACATTATAA [GTGCAC_negctrl_site133]” the “gcPBM binding intensity (ln)” value was 6.37.
In the case of “TATATATATATATAAACACACATAAATATAAATATA [CACACA_site1121]”, the “gcPBM binding intensity (ln)” value is reported as 9.04.
With “GTTAATGTGGTTACTTGTACATATTAACGTCTTTTT [XGTACX_site2617]” the “gcPBM binding intensity (ln)” value was 6.42.
For “AAAAAAAAAATATACACACACATATATATATATATA [CACACA_site3404]”, the “gcPBM binding intensity (ln)” value was 9.35.
With “ATATATATATTTTATGCATGTTCATTTTCTATATTT [TGCATGCA_site442]” the “gcPBM binding intensity (ln)” value was 7.94.
In the case of “TCAACACACGTGGAATGTACTTTAGTATAAGAATTC [XGTACX_site7842]”, the “gcPBM binding intensity (ln)” value is reported as 6.38.
In the case of “TAAATATATTTCATGACATGCAACTTGTTTTTTTGT [TGCATGCA_site456]”, the “gcPBM binding intensity (ln)” value is reported as 6.91.
“ATAAAAAAAAGACACACACACATATATATATATATA [CACACA_site3073]” was tested, and the “gcPBM binding intensity (ln)” value was 9.37.
With “GATTCATTTCATAATACACACAACAAATATTTCAAA [CACACA_site120]” the “gcPBM binding intensity (ln)” value was 6.83.
“TCGACAATTTTATAAAGTACTTATTAGAAATATGAA [XGTACX_site7133]” was tested, and the “gcPBM binding intensity (ln)” value was 6.22.
In the case of “CCATTTAAAACATTTTGTACTTATTTTACATTTCTG [XGTACX_site4270]”, the “gcPBM binding intensity (ln)” value is reported as 6.57.
For “AAACAAATAAAATTTATTAAAAAGGTCATATTATTA [CACACA_negctrl_site85]”, the “gcPBM binding intensity (ln)” value was 6.12.
With “AGAAAAAAAAATTATACATGCATATACGTTTATTTT [TGCATGCA_site529]” the “gcPBM binding intensity (ln)” value was 6.17.
“TTTCTTACAACAACAACAAAAAAAAATAAATAAAAT [GTGCAC_negctrl_site711]” was tested, and the “gcPBM binding intensity (ln)” value was 6.56.
For “ATATTTTATATTTCTTGTACATATATTTGTAGATAT [XGTACX_site1140]”, the “gcPBM binding intensity (ln)” value was 6.54.
In the case of “TATTATTTTTTTATTCTATTAAAAAGAAAAAAATGA [CACACA_negctrl_site407]”, the “gcPBM binding intensity (ln)” value is reported as 5.92.
“AATTTATTTTTAAAAAGTACATACTTAAGAAAACGA [XGTACX_site3660]” was tested, and the “gcPBM binding intensity (ln)” value was 6.85.
In the case of “ATATATATATATATATGTACACACATCAATCATATT [XGTACX_site4005]”, the “gcPBM binding intensity (ln)” value is reported as 9.39.
In the case of “AGAGTACAAGTAAATACACACATATAGATGAAAATA [CACACA_site6635]”, the “gcPBM binding intensity (ln)” value is reported as 6.88.
“AAGAAAACTTAAAATAAAAGCATATTTTATCTTACA [TGCATGCA_negctrl_site366]” was tested, and the “gcPBM binding intensity (ln)” value was 5.77.
For “TGCAGTCTGGAGAAGAGTACATAGTATCTGGTAGCT [XGTACX_site2021]”, the “gcPBM binding intensity (ln)” value was 6.26.
With “TATTAATAAATTTATAAAACAGGTATATATATATAT [CACACA_negctrl_site615]” the “gcPBM binding intensity (ln)” value was 9.24.
For “CAAAGGGAAATTAACACACACATATTTATATTTATA [CACACA_site7202]”, the “gcPBM binding intensity (ln)” value was 6.48.
“ATGTATATGATTAAATGTACGTAAACAAATTTGTAA [XGTACX_site8174]” was tested, and the “gcPBM binding intensity (ln)” value was 6.92.
For “ACCACATAAAACAAATGTACTTGAAATATATGCGTA [XGTACX_site5155]”, the “gcPBM binding intensity (ln)” value was 6.24.
In the case of “AAAAATTATGGACACACACACATATATATATATATT [CACACA_site4717]”, the “gcPBM binding intensity (ln)” value is reported as 6.81.
“GGTATACGCAAGTATACACACATATATATATATATA [CACACA_site3240]” was tested, and the “gcPBM binding intensity (ln)” value was 9.32.
For “AATAAAATAAAATACACACATACATACATACAAATG [CACACA_site2438]”, the “gcPBM binding intensity (ln)” value was 6.99.
In the case of “TAATTTATGACACGCGCACACATATATATATAGTAA [CACACA_site4249]”, the “gcPBM binding intensity (ln)” value is reported as 6.96.
In the case of “TGAGTTACATACTAATGTACACAACAAAAAAAAAAA [XGTACX_site2390]”, the “gcPBM binding intensity (ln)” value is reported as 6.13.
For “AAAGGTTTATATGATACACACATAAGTGATCAGGTT [CACACA_site190]”, the “gcPBM binding intensity (ln)” value was 6.36.

Reference: the supplement of paper PMC11417369
